Experimental data taken from the supplement of paper PMC3334620.
The full ranking holds about 33,000 sequences; the median of “E-score (-0.5 to 0.5)” is about -0.032, and the highest 2% start at about 0.36. The list shows a part of the results.

target: T1, Sko1 (UniProt Q02100); assay: PBM E-score (8-mer binding enrichment) (E-score (-0.5 to 0.5)); higher = stronger / more preferred TF binding; most listed sequences are background and not binding sites; settings: protein concentration: 200 nM; construct: GST-full length
T1 sequence: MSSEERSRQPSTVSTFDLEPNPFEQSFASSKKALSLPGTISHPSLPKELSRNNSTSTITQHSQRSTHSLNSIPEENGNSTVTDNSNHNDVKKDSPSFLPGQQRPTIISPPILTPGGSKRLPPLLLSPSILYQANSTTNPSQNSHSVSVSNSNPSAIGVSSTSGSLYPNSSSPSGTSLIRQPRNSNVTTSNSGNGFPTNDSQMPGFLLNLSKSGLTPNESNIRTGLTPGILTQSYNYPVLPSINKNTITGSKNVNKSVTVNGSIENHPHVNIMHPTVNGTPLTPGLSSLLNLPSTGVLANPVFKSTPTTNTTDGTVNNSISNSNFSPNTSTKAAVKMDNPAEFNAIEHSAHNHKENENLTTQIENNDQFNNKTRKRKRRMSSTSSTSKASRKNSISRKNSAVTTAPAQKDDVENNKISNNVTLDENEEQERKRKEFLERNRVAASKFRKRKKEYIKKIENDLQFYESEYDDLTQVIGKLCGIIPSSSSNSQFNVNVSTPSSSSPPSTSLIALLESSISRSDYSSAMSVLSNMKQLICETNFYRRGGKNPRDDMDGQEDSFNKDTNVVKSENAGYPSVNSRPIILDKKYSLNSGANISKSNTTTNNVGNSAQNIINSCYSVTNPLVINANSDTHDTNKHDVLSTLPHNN
How it was run: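 E-scores (a modified Wilcoxon-Mann-Whitney statistic) were assigned by the Universal PBM Analysis Suite to every ungapped eight-base word pooled with its reverse complement. The input came from universal all-10-mer Agilent arrays made double-stranded by primer extension and probed with GST-tagged yeast transcription factors at about 100-200 nM. Fluorescent anti-GST detected bound protein, and masliner normalised the scans.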

| Sequence | PBM E-score |
| --- | --- |
| CGTCGCTA | 0.133 |
| TCGGTCAA | -0.0674 |
| CGCCTTGA | -0.11 |
| CTCCCCGA | -0.299 |
| GATTAAGC | -0.0337 |
| ACATAAGT | 0.207 |
| AAACTTCA | 0.181 |
| CAAATCTG | 0.121 |
| AATTTAGC | 0.187 |
| AAAGTTCT | -0.051 |
| ACGGCGAT | -0.113 |
| ACGCGACG | 0.23 |
| CACTACAA | 0.266 |
| CGACCTAA | 0.136 |
| CGAGTCTC | -0.407 |
| GTTTATAA | 0.19 |
| ACCCGTGC | 0.0134 |
| CAAGATTG | 0.0271 |
| CCTGCAGG | -0.237 |
| CATAGTCA | 0.00982 |
| CACCCCTC | -0.188 |
| AGAAGAGG | -0.0413 |
| ATAACTAC | 0.264 |
| GCCACCGC | -0.181 |

| Sequence | PBM E-score |
| --- | --- |
| ATCGGTTA | 0.0159 |
| GAAGAAAA | 0.0331 |
| CTTTATTC | -0.0121 |
| CCCTGGCC | -0.265 |
| CATAGGAC | -0.0867 |
| CAGAACGA | 0.0394 |
| AGATCGCC | -0.0903 |
| GGGGAAAA | -0.0662 |
| AGAAACCA | -0.026 |
| ATCCTAGC | -0.0411 |
| CGGCTGCA | -0.265 |
| GTTCTACA | -0.0101 |
| ACCTAAAC | 0.0414 |
| CCCATACA | 0.00693 |
| ATGCCTGG | -0.197 |
| ACTTGCAT | 0.0511 |
| GCTACGTA | 0.456 |
| ATTGCAGC | -0.00414 |
| ACAGCGGG | -0.109 |
| ATCTTAAG | -0.0288 |
| CTTAACTA | 0.189 |
| CTAGTGAG | 0.0303 |
| CGTCTGAC | 0.128 |
| CAGGTGGA | -0.286 |

| Sequence | PBM E-score |
| --- | --- |
| TGTAACAA | 0.0605 |
| ATTCTCAG | -0.0855 |
| ATCAGAAA | 0.0216 |
| AACGCCCC | -0.21 |
| ACTTTCAT | 0.0326 |
| AATAGGGC | -0.218 |
| AGCTGAGC | -0.2 |
| CTGCGATC | -0.212 |
| AAAGGCAT | -0.0528 |
| AATCCTTG | -0.054 |
| GGAGGCGA | -0.151 |
| TCGCCAAA | -0.114 |
| ATTTGCTG | 0.0414 |
| CCTCATTA | 0.131 |
| CAGCGACC | -0.145 |
| AAGTCAAC | 0.0804 |
| AATATCAC | 0.2 |
| AGTTCTCG | 0.0316 |
| ATACTTCA | 0.0867 |
| ACGGCTCT | -0.219 |
| CAATAAGA | 0.0999 |
| ATCCCCGA | -0.292 |
| ATCTTAAA | 0.133 |
| CCTTGCTA | -0.135 |

| Sequence | PBM E-score |
| --- | --- |
| GAGCCCCC | -0.176 |
| CAAGCGGA | -0.241 |
| ATACAATG | 0.0937 |
| GGGGCACC | -0.225 |
| AACATGGC | -0.0371 |
| AATGGGAA | -0.181 |
| AAGAAGAT | -0.00249 |
| CGGTGAAA | 0.0268 |
| AAAGTAAA | 0.0553 |
| ATTGCATC | 0.17 |
| ATGAGTAA | 0.0238 |
| AGAAAGTG | -0.0888 |
| CTTTTCCC | 0.0673 |
| ATCACAAC | 0.205 |
| GTACATAC | 0.158 |
| TCTGCAAA | 0.043 |
| AGCGCCGA | -0.209 |
| AGAGCCTA | 0.0998 |
| GCAATAGA | -0.0144 |
| AACACGTT | 0.313 |
| AAGAAATA | 0.203 |
| ATGCTATA | 0.0431 |
